About 4,300 (8.3%) of roughly 52,000 compounds were called active. Rule as the data show it: active = survival mostly below about 52% (no sharp cut-off); inactive = mostly above about 56%. This is one part of the list.

The subject of this assay is DeltatarO mutant. Description: S. aureus survival, RN4220 and DeltatarO strains – OD600, teichoic acid synthesis inhibitors, primary screen (AID 463173). The following applies: S. aureus RN4220 wild type/DeltatarO growth, OD600, 18 h, hits give low values, screened at 18.75 µg/mL (by protocol).
Consider `Cc1c(Cl)cccc1NC(=O)CN1C(=O)CSc2ccc(S(=O)(=O)N3CCCC3)cc21`, for which the survival was inactive: 103%.
The same measure for `CC(=O)c1cc(-c2ccc(F)cc2)n(CCC(=O)NCc2ccc(C)cc2)c1C`: inactive: 73%; for `Cc1[nH]c2ccc(-c3nnc(SCc4ccc(C(=O)O)cc4)o3)cc2c1C`: inactive: 65%.
As for `CCn1c(=O)c2sccc2n2c(CCCC(=O)N3CCN(c4ccccc4OC)CC3)nnc12`, the figure is inactive: 91%; as for `Cc1ccccc1C(=O)NCc1ccc2c(c1)CCN2C(=O)c1ccccc1`, inactive: 84%.
The same measure for `CCOC(=O)N1CCC(NC(=O)c2cnn(-c3cccc(C)c3)c2C2CCN(C(=O)OC(C)(C)C)CC2)CC1`: inactive: 83%; for `CC(C)=CCC(C)(C)CNc1ccc(C)cc1`: inactive: 66%; for `COc1ccc(CNC(=O)C(=O)NCC(c2cccs2)S(=O)(=O)c2ccc(C)cc2)cc1` (stereo not given): inactive: 78%.
For `O=C(c1ccc(F)cc1)N1c2ncnn2C2(CCCCC2)[C@@H]2CCCC[C@@H]21`, the survival was inactive: 91%.
With `Cc1ccc(-c2nsc(NC(=O)c3oc4cc(C)c(Cl)cc4c3C)n2)cc1`, the survival is inactive: 74%.
The same measure for `CCn1c(SCC(=O)Nc2cccc(Cl)c2)nnc1-c1nonc1NC(C)=O`: inactive: 106%.
As for `CC(C)NC(=O)c1nn(C)c2c1CS(=O)(=O)c1ccccc1-2`, the figure is active: 51%; as for `COC(=O)c1cc(Cl)ccc1NC(=O)Cn1c(C)cc(C)c(C#N)c1=O`, inactive: 99%.
With `CCOc1ccccc1CN(CCc1ccc2c(c1)OCO2)Cc1cc(OC)c(OC)cc1OC`, the survival is inactive: 56%.
For `COc1ccccc1CNc1nc(-c2ccco2)nn1S(=O)(=O)c1ccc(C)cc1`, the survival was inactive: 66%.
In the case of `Clc1ccc(CN2CCc3nc(Nc4ccc5c(c4)OCCO5)ncc3C2)cc1`, the survival is inactive: 94%.
The same measure for `COc1ccc2oc(=O)cc(CN3CCN(C(=O)c4ccccc4)CC3)c2c1`: active: 41%; for `O=C(Nc1ccc(O)c(-c2nc3ccccc3o2)c1)c1cccs1`: inactive: 75%; for `O=C(O)C1CCC(N2C(=O)C3C4C=CC(C4)C3C2=O)CC1` (stereo not given): inactive: 105%.
As for `CCOc1ccc(NC(=O)c2oc3ccccc3c2NC(=O)Cc2ccc(OC)c(OC)c2)cc1`, the figure is inactive: 71%.
For `Cc1ccc(C)c(CN2C(=O)c3ccccc3Sc3ccc(C(=O)NCCCOC(C)C)cc32)c1`, the survival is inactive: 89%.
As for `CCOC(=O)c1ccc(N2C(=O)c3n[nH]c(C)c3C2c2ccc(C(C)C)cc2)cc1` (stereo not given), the figure is inactive: 86%; as for `O=C(CSc1n[nH]c(-c2ccccc2Cl)n1)N1CCN(c2ccc(F)cc2)CC1`, inactive: 77%.
The same measure for `O=C1CNC(=O)N1Cc1ccc(F)cc1`: inactive: 108%; for `CC(C)c1nn2c(=O)cc(COC(=O)c3ccc(NC(=O)c4ccccc4Cl)cc3)nc2s1`: inactive: 80%; for `Cc1cccc(NS(=O)(=O)c2nnc(NC(=O)C3CCCCC3)s2)c1`: active: 34%.
As for `COc1cc2[nH]c(=O)n(Cc3ccc(C(=O)N4CCN(c5cccc(C)c5C)CC4)cc3)c(=O)c2cc1OC`, the survival was inactive: 138%.
As for `CCN(c1ccccc1)C1SC(=O)N(c2ccccc2)C1=O` (stereo not given), the figure is inactive: 70%; as for `COc1ccc(CNC(=O)c2cc(Nc3ccc(OC)cc3OC)nc3ccccc23)cc1`, inactive: 80%.
For the molecule `Cc1ccc(-n2nc(CO)c(C(=O)NCCO)n2)cc1`, the survival is inactive: 82%.
The same measure for `COc1ccc(CCNC(=O)Cn2nnc(-c3cccc(C(F)(F)F)c3)n2)cc1OC`: inactive: 95%; for `CC1CN(C)C(C)c2c1oc1ccc(N)cc21` (stereo not given): inactive: 98%.
As for `COc1ccc(CNC(=O)C(=O)NCC(c2cccnc2)N2CCN(c3ccccc3F)CC2)cc1` (stereo not given), the figure is inactive: 70%.
The same measure for `COc1cc(C2C(=O)N(C3CCC(C)CC3)CC(=O)N2CCc2ccc(Cl)cc2)ccc1OC(C)C` (stereo not given): inactive: 84%; for `Cc1ccc(NC(=O)CN(C)S(=O)(=O)c2cccc3nsnc23)c(C)c1`: inactive: 88%.
In the case of `COc1ccc(-c2[nH]ncc2C(=O)NCc2ccccc2OC)cc1`, the survival is inactive: 79%.
The same measure for `Cc1ccc(Nc2cc(-c3ccccc3)nc(C)n2)cc1`: active: 24%; for `Cc1cccc2cc(C(c3nnnn3Cc3ccccc3)N3CCN(C(=O)c4ccco4)CC3)c(=O)[nH]c12` (stereo not given): inactive: 105%; for `CC(=O)Nc1ccc(S(=O)(=O)Nc2ccc3c(c2)n(C)c(=O)n3C)c(C)c1`: inactive: 89%.
The same measure for `Cc1cc(C)n(-c2nc3cc(Cl)c(Cl)cc3nc2Nc2c(C)cccc2C)n1`: inactive: 89%; for `CC(=O)Nc1ccccc1-c1nc2ccccc2n(C(C)C(=O)c2ccc(C)c(C)c2)c1=O` (stereo not given): inactive: 104%.
As for `CCOc1ccc(CC(=O)NC2CC(=O)N(c3ccc4c(c3)OCCO4)C2)cc1` (stereo not given), the figure is inactive: 85%; as for `CCN(c1ccccc1)S(=O)(=O)c1nnc(NC(=O)COc2ccccc2F)s1`, active: 31%.
Regarding `Cc1cccc(CSCCNC(=O)CN(c2ccccc2)S(=O)(=O)N(C)C)c1`, the survival was inactive: 123%.
Take `CC1(C)Cc2ccccc2-c2nnc(SCC(N)=O)n21`: the survival is inactive: 76%.
The same measure for `CCSC1=NC2(CCN(C(=O)NC3CCCCC3)CC2)N=C1c1ccc(C)c(C)c1`: inactive: 78%.
As for `Cc1ccc(NC(=O)[C@H](Cc2ccccc2)N2Cc3ccccc3C2=O)cc1`, the figure is inactive: 81%; as for `Cc1noc(C)c1S(=O)(=O)NCCc1csc2nc(-c3ccc(F)cc3)nn12`, inactive: 87%; as for `CCOC(=O)c1c(NC(=O)c2cc3ccccc3c(=O)o2)sc2c1CCCC2`, active: 45%.
As for `CCCN(CCC)CCNC(=O)c1cc(Sc2ccc(Cl)cc2)nc2ccccc12`, the figure is inactive: 128%; as for `COc1nc(Oc2ccc(=O)n(-c3ccccc3)n2)nc(N(C)C)n1`, inactive: 53%; as for `CCc1cccc(NC(=O)c2ccc3c(=O)n4nc(Nc5ccccc5OC)sc4nc3c2)c1`, inactive: 74%.
For the molecule `COc1ccc(C(=O)NN=C2CCCC2)cc1`, the survival was inactive: 91%.
The same measure for `COc1ccc(OC)c(NC(=O)CCc2c(C)nc3c(-c4ccccc4)c(C)nn3c2C)c1`: inactive: 51%; for `Cc1ccc(Cn2c(=O)c3cccnc3n(Cc3ccc(F)cc3)c2=O)cc1`: inactive: 92%.
The same measure for `CCc1c(C)nc2cc(-c3ccccc3)[nH]n2c1=O`: inactive: 73%; for `Cc1cccc(Nc2nc3ccccc3n3c(N)nnc23)c1`: inactive: 95%; for `O=C(CSc1ncn[nH]1)NCCOc1ccccc1`: inactive: 76%.
As for `Cc1cc2n(n1)CCCN2C(=O)Nc1cccc(C)c1C`, the figure is inactive: 73%; as for `CCOC(=O)c1c(NC(=O)/C=C/c2ccc(OC)cc2)sc2c1CCC(C)C2` (stereo not given), active: 23%; as for `O=C(CSc1nc(=O)[nH]c2c1CCCC2)NCc1ccc(Cl)cc1`, inactive: 99%.
For `Cc1ccccc1C(=O)Nc1sc2c(c1C(=O)N1CCC(C)CC1)CCCC2`, the survival is inactive: 58%.
As for `CCN(CCCNC(=O)c1cc2c(=O)[nH]c3ccc(C)cc3c2s1)Cc1ccccc1`, the figure is inactive: 56%.
The same measure for `CCc1ccc2oc(C(=O)Nc3nc(-c4ccccc4)ns3)c(C)c2c1`: inactive: 53%; for `Cc1cccc(CNC(=O)c2ccc(Cn3c(SCc4ccccc4)nc4cccnc43)cc2)c1`: inactive: 92%.
For `Cc1c(C(=O)N(C)C)sc2c1c(=O)n(-c1ccc(F)cc1)c(=O)n2CC(=O)N(C)c1ccccc1`, the survival is inactive: 73%.
The same measure for `COc1ccccc1CNC(=O)CCC1N=C2c3ccccc3N=C(SCC(=O)NCCc3ccccc3)N2C1=O` (stereo not given): inactive: 131%; for `Cc1ccc(OC(C)C(=O)NCC2(N3CCOCC3)CCCCC2)cc1C` (stereo not given): inactive: 57%; for `Cc1cc2oc(C(=O)Nc3ccc(S(=O)(=O)Nc4onc(C)c4C)cc3)cc(=O)c2cc1C`: inactive: 49%.
The same measure for `Cc1ccc(C)c(NC(=O)Cn2c(=O)oc3cc(S(=O)(=O)NCc4ccccc4)ccc32)c1`: inactive: 74%; for `CCOc1ccc(-n2c(SC(C)C(=O)OC)nc3c([nH]c4ccccc43)c2=O)cc1` (stereo not given): active: 0%; for `CCOc1ccc(NC(=O)CN2CCN(CC(=O)Nc3ccc(OC)cc3)CC2)cc1`: inactive: 102%.
The same measure for `O=C(NN=C1C2CC3CC(C2)CC1C3)c1ccncc1`: inactive: 97%; for `COc1ccccc1/C=C/c1nc(C#N)c(N2CCN(c3ccccc3)CC2)o1`: inactive: 94%; for `CN(C(=O)CSc1nc2ccc(NC(=O)COc3ccccc3Cl)cc2s1)c1ccccc1`: inactive: 59%.
In the case of `COc1cccc(CNC(=O)CCCn2c(=O)c3cccn3c3cccnc32)c1OC`, the survival was inactive: 103%.
As for `CCCCn1nc(NC(=O)c2cccc(Cl)c2)c2cc3ccc(C)cc3nc21`, the figure is inactive: 69%; as for `CC(=O)Nc1ccc(NS(=O)(=O)c2cc3c4c(c2)CC(=O)N4CCC3)cc1`, inactive: 118%; as for `COc1cc(C(=O)NCCS(=O)(=O)N2CCN(c3ccccc3)CC2)cc(OC)c1OC`, inactive: 92%.
For the molecule `COc1ccc(-c2cc3nc(C)c(CCC(=O)N4CCN(c5cc(C)ccc5C)CC4)c(C)n3n2)c(OC)c1`, the survival is inactive: 69%.
Consider `Cn1cc(S(=O)(=O)c2ccc(Cl)cc2)c(=O)c2cc(F)c(N3CCOCC3)cc21`, for which the survival is inactive: 77%.
The same measure for `COC(=O)c1cccc(CN2C(=O)SC(Nc3ccc(Br)cc3)C2=O)c1` (stereo not given): active: 23%; for `Cc1ccc(NC(=O)CSc2nc3ccc(NC(=O)c4ccco4)cc3s2)c(C)c1`: inactive: 63%.
With `COc1ccc(-c2cc(C(F)(F)F)nc(NCCc3ccccc3)n2)cc1`, the survival was active: 1%.
Take `COC(=O)c1c(SCC(=O)Nc2cc(F)ccc2F)[nH]c2ccc(C)cc2c1=O`: the survival was inactive: 116%.
Take `O=C(NCCc1ccccc1)c1cc2sccc2n1Cc1ccc(F)cc1`: the survival was inactive: 72%.
The same measure for `Cc1c(-c2ccc(Cl)cc2)c(=O)oc2c(CN3CCOCC3)c(O)ccc12`: inactive: 82%; for `O=c1nc2cc3[nH]c4c(=O)c5ccccc5c4[nH]c3cc2n1`: inactive: 82%; for `CC(=O)Oc1ccc2oc(=O)sc2c1`: inactive: 79%.
The same measure for `Cn1cc(CCC(=O)O)c2ccccc21`: inactive: 99%.

The record behind these values is PubChem BioAssay AID463173 (ICCB-Longwood Screening Facility, Harvard Medical School, 2010).
